Source: patent US20260008853A1 (BEONE MEDICINES I, published 2026)
Results are given in words; binding and its absence hold for the method and conditions named. Some results given as binding are weak or reduced against the parent protein; the word gives no strength.

Chains of the proteins cited; added tags and fusions are not shown. Lines headed by an entry give the natural chain unless they say otherwise; changes in a name come on top.
UniProt O75015: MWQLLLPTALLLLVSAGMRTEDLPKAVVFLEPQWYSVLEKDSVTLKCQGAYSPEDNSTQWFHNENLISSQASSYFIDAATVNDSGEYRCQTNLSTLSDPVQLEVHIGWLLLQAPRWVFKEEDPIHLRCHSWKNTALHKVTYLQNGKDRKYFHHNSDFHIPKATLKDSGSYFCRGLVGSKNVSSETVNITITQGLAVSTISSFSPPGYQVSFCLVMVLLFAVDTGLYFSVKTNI
UniProt Q8SPW2: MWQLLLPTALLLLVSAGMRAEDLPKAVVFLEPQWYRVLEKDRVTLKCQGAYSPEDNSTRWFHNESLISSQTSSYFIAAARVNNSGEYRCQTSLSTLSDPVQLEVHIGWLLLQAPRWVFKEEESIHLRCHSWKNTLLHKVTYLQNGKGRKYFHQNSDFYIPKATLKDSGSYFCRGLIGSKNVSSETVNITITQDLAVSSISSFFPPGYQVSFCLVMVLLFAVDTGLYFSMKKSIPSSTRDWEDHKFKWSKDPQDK
UniProt P08637: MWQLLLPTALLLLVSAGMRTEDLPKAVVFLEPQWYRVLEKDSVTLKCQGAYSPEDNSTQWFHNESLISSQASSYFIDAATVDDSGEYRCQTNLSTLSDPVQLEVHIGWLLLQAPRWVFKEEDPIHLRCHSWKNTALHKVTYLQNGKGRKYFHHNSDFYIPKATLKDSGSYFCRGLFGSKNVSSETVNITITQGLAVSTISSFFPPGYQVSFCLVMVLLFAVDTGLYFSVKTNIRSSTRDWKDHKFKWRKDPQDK

How the values were obtained:
[1] = molecular target: human CD16B-His6 (NA1) (human) (UniProt O75015); experiment: antigen ELISA, coated human CD16B-His6 (NA1), HRP anti-human IgG
[2] = molecular target: human CD16B-His6 (NA2) (human) (UniProt O75015); experiment: antigen ELISA, coated human CD16B-His6 (NA2), HRP anti-human IgG
[3] = molecular target: cyno CD16-His6 (cyno) (UniProt Q8SPW2); experiment: antigen ELISA, coated cyno CD16-His6, 1 ug/ml, HRP anti-human IgG
[4] = molecular target: human CD16A-His6 (F158) (human) (UniProt P08637); experiment: antigen ELISA, coated human CD16A-His6 (F158), 1 ug/ml, HRP anti-human IgG
[5] = molecular target: human CD16A-His6 (V158) (human) (UniProt P08637); experiment: antigen ELISA, coated human CD16A-His6 (V158), 1 ug/ml, HRP anti-human IgG
[6] = molecular target: Human CD16B (NA1) on NK92mi/CD16B (NA1) cells (human) (UniProt O75015); experiment: flow cytometry on NK92mi/CD16B (NA1) cells, Alexa Fluor 647 anti-human IgG Fc
[7] = molecular target: Human CD16B (NA2) on NK92mi/CD16B (NA2) cells (human) (UniProt O75015); experiment: flow cytometry on NK92mi/CD16B (NA2) cells, Alexa Fluor 647 anti-human IgG Fc
[8] = molecular target: Human CD16A (V158) on NK92mi/CD16A V158 cells (human) (UniProt P08637); experiment: flow cytometry on NK92mi/CD16A (V158) cells, Alexa Fluor 647 anti-human IgG Fc

binding [1]: no binding (tested: 1 ug/ml)
binding [2]: no binding (tested: 1 ug/ml)
binding [3]: binds
binding [4]: binds
binding [5]: binds
binding [6]: no binding (tested: 50 ug/ml)
binding [7]: no binding (tested: 50 ug/ml)
binding [8]: binds
B1: LS21 (scFv)
scFv: EVQLVQSGAEVKKPGESLKVSCKASGYTFTSYYMHWVRQAPGQGLEWMGIINPSGGSTSYAQKFQGRVTMTRDTSTSTVYMELSSLRSEDTAVYYCARGSAYYYDFADYWGQGTLVTVSSGGGGSGGGGSGGGGSQPVLTQPSSVSVAPGQTATISCGGHNIGSKNVHWYQQRPGQSPVLVIYQDNKRPSGIPERFSGSNSGNTATLTISGTQAMDEADYYCQVWDNYSVLFGGGTKLTVL
notes: also called positive control
